According to PubChem BioAssay AID1159614 (National Center for Advancing Translational Sciences (NCATS), 2016):
The campaign covered roughly 45,000 compounds. About 65 (0.1%) were called active. The call rests on the fitted dose curve; in most records, active means well fitted activation curve with a large enough effect; inconclusive means small, poorly fitted or top-dose-only effect; inactive means no such curve, though single readings can be large or run the other way. Some of the results follow.

biological target: Galactocerebrosidase (Homo sapiens) (UniProt P54803); assay: A Novel Cell-Based Assay to Identify Small Molecules for B -Galactocerebrosidase; settings: 145M-Twi-hGALC-G270D cells (Twitcher mouse brain line with human GALC G270D), HMU-beta-Gal fluorescence, 48 h; series mostly up to 57.5 µM; activation: at the top concentration; further: 0% is about no effect; nearly all actives have a fitted effect of over 65% in size
Summary of the method: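 Fluorogenic HMU-b-Gal hydrolysis (0.1 mM final, pH 5.2 citrate-phosphate with 1 mg/mL sodium taurocholate; carbonate stop buffer) measures mutant GALC activity after compound treatment of live 145M-Twi Twitcher brain cells stably carrying human GALC-G270D, with wild-type GALC line alongside; activation sought.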

Chain of UniProt P54803 (P54803 whole entry, looked up): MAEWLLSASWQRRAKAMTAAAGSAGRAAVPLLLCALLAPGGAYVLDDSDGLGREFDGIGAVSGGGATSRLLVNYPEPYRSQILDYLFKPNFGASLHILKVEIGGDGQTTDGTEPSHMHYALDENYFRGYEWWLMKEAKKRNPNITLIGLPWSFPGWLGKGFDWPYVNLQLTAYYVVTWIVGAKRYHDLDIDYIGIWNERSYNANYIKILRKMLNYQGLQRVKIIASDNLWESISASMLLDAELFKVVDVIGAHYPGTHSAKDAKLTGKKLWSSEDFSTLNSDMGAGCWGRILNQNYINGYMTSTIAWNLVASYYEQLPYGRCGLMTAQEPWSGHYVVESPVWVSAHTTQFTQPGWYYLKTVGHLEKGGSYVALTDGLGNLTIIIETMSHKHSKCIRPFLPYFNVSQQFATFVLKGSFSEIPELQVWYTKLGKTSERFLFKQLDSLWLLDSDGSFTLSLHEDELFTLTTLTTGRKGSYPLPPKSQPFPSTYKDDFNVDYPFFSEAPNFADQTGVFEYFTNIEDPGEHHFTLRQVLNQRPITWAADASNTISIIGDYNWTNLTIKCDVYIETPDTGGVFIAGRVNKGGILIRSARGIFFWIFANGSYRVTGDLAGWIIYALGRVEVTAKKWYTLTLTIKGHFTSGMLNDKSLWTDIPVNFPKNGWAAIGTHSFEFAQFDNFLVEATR

activation, inactive:
Cc1nn(-c2ccccc2)c2c1cc1c(=O)n(C)c(=O)nc-1n2-c1cccc(Cl)c1 -13.4%, Oc1ccc(-c2nc(-c3ccccc3)c(-c3ccc(Br)cc3)[nH]2)cc1 8.7%, CN(C)CC/C=C1/c2ccccc2COc2ccc(CC(=O)O)cc21 -7.45%, CCc1c(C)sc2c1CCN(C(=O)Nc1cc(C)cc(C)c1)C2c1ccccc1 (stereo not drawn) -14.5%, COc1ccc(CNC(=O)CN2C(=O)COc3ccc(S(=O)(=O)N4CCC(C)CC4)cc32)cc1 -15.4%, COc1ccc(CCNC(=O)c2oc(=O)c3ccccc3c2-c2ccccc2)cc1OC -12%, Cc1ccc(NC(=O)Cn2c(=O)n(CCCCC(=O)NCCc3ccc(Cl)cc3)c(=O)c3ccccc32)cc1 -13.2%, COCCCN1C(=O)c2[nH]nc(-c3ccccc3O)c2C1c1ccc(OCc2ccccc2)cc1 (stereo not drawn) -16.7%, COC(=O)c1sc(N2C(=O)c3oc4ccccc4c(=O)c3C2c2ccc(O)cc2)nc1C (stereo not drawn) -5.46%, COc1cc(NC(=O)CCS(=O)(=O)c2nc(-c3ccc4c(c3)OCO4)cc(C(F)(F)F)n2)cc(OC)c1OC -12.7%, CCCCNC(=O)C1CCC(CNS(=O)(=O)c2ccc(C)cc2)CC1 (stereo not drawn) -15.4%, Cc1nc(NC(=O)c2c(-c3ccccc3)c(-c3ccccc3)nn(C)c2=O)sc1C -3.37%, COCCCNC(=O)CSc1nc2cc3c(cc2c(=O)n1CCCCCC(=O)NCc1ccc2c(c1)OCO2)OCO3 -3.69%, Cc1cccc(NC(=O)c2sc3nc4c(cc3c2N)CN(C(C)C)CC4)c1 -8.06%, CCc1ccc(S(=O)(=O)Nc2ccc3[nH]c(=O)sc3c2)cc1 -17.4%, CCC1CCCCN1C(=O)CSc1nc(-c2ccc(OC)c(OC)c2)cc(C(F)(F)F)n1 (stereo not drawn) -12.7%, CC1=C(C(=O)OC2CCCCCC2)C(c2cccc(F)c2F)CC(=O)N1 (stereo not drawn) 9.54%, Cc1cccc(N2CCN(C(=O)CN3C(=O)COc4ccc(S(=O)(=O)N5CCOCC5)cc43)CC2)c1C -5.64%, CC(=O)N1CCc2cc(Br)cc(S(=O)(=O)CCC(=O)N3CCN(c4ccccc4)CC3)c21 -4.86%, Cc1nc2cc(C(=O)NC3CCCCCC3)ccc2n1-c1ccc(Br)cc1 -23.2%, COc1cc(NC(=O)CCCc2nnc3n(CC(C)C)c(=O)c4sccc4n23)cc(OC)c1 -6.4%, Cc1ccc(Cn2c(SCC(=O)NCc3ccccc3Cl)nc3ccsc3c2=O)cc1 -16.2%, Fc1ccc(Nc2nc(SCc3ccccc3F)nc3ccccc23)cc1 -14.9%, CCOC(=O)c1cc2c(=O)n3ccccc3nc2n(Cc2ccco2)c1=NC(=O)c1cccc(F)c1 -3.45%, Cc1cc([N+](=O)[O-])ccc1NC(c1nnc(-c2ccccc2)o1)c1ccccc1F (stereo not drawn) -6.77%, CN(C)S(=O)(=O)c1ccc2c(c1)N(CC(=O)Nc1ccc(F)cc1)C(=O)CS2 -16.2%, CC(C)c1ccc(NS(=O)(=O)c2ccc3[nH]cc(C(=O)NCC4CCCO4)c(=O)c3c2)cc1 (stereo not drawn) -11.2%, Cc1cc(-c2ccc(C)c(S(=O)(=O)NCCc3ccc(S(N)(=O)=O)cc3)c2)on1 4.57%, CCOc1ccc2nc(N3CCCC(C(=O)Nc4ccc(OC)c(Cl)c4)C3)sc2c1 (stereo not drawn) -6.58%, CN(C)c1ccc(-c2nnc3n(Cc4ccccc4)c(=O)c4ccccc4n23)cc1 -17.6%, c1ccc(CN(CC2=NCCN2)c2ccccc2)cc1 -12.6%, CC(=O)c1cccc(NC(=O)Cn2c(=O)oc3cc(S(=O)(=O)N4CCCC4)ccc32)c1 -2.37%, CCOc1ccc(CCNC(=O)CN2C(=O)COc3ccc(S(=O)(=O)N4CCCCCC4)cc32)cc1 -12.7%, CCC(=O)C1=C(c2ccc(OC)c(OC)c2)N(C(=O)CC)n2c(CC)nnc2S1 -12.2%, Cc1ccc(NC(=O)c2c(NC(=O)Cc3ccccc3)sc3c2CCCC3)cc1 -9.31%, CC(=O)Nc1ccc(NC(=O)CCSCCc2ccccn2)cc1 -30.3%, Cc1ccc2oc(=O)c3cc(C(=O)N4CCN(c5ccccc5F)CC4)sc3c2c1 -3.54%, O=S(=O)(Nc1cc(F)ccc1F)c1ccc2[nH]c3c(c2c1)CCCCC3 -11.8%, CC(C)(C)c1ccc(Oc2ccc(NC(=O)CCC(=O)OCC(=O)c3ccccc3)cc2)cc1 -10.7%, CN(C)c1ccc(CNC(=O)c2ccc(NC(=O)N3CCCCc4ccccc43)cc2)cc1 -7.44%, COc1ccc(-n2c(SCC(=O)Nc3cccc(C)c3C)nc3c([nH]c4ccccc43)c2=O)cc1 -6.27%, N#Cc1c(-n2ncnc2-c2cccc(Br)c2)sc2c1CCCCC2 -11.9%, CCc1ccccc1NC(=O)C1CCN(c2cnccn2)CC1 -11%, Cc1ccc(Cl)cc1N1CCN(C(=O)CCCn2c(=O)[nH]c3ccc(Br)cc3c2=O)CC1 -1.51%, CC(C)CCn1nnc2sc(-c3ccccc3)cc2c1=O -3.8%, O=C(NCCS(=O)(=O)N1CCN(c2ccc(F)cc2)CC1)c1cccc(C(F)(F)F)c1 -4.63%, CCCCSCCCNC(=O)c1cn(C)c2ccc(S(=O)(=O)N3CCCCCC3)cc2c1=O -6.35%, CC(C)Oc1cccc(C2CC(=O)Nc3cc4c(cc32)OCO4)c1 (stereo not drawn) -9.34%, CC(=O)c1ccc(Nc2ccc3cc(S(=O)(=O)N4CCCC4)ccc3n2)cc1 -2.46%, O=C(CCn1cnnn1)Nc1cc(C(F)(F)F)cc(C(F)(F)F)c1 -2.8%, CC(=O)c1nnn(-c2ccc(C)cc2Cl)c1C -9.81%, COc1ccc2c(c1)c1c(c(=O)n(-c3ccc(OC)c(OC)c3)c(=O)n1Cc1ccccc1F)n2C -9.56%, COc1cc(NC(=O)CSc2nccn2C)cc(OC)c1OC -22.8%, COc1cc(OC)c(NC(=O)c2nn(-c3ccc(C)cc3)c(=O)c3c2c2ccccc2n3C)cc1Cl -7.37%, O=C(Nc1cccc(C(=O)N2CCN(c3cccc(Cl)c3)CC2)c1)c1nsc2ccccc12 -11.7%, CCOc1ccc(C2c3c(oc4ccc(C)cc4c3=O)C(=O)N2CCCN(C)C)cc1 (stereo not drawn) -0.184%, CSc1ccc(CCNC(=O)C(C)n2nc(C)c3sc4ccccc4c3c2=O)cc1 (stereo not drawn) -11%, CCOC(=O)C1CCN(C(=O)c2ccc(NC(=O)c3nsc4ccccc34)cc2)CC1 -20.2%, O=C(NCc1ccccc1Cl)c1ccc(Cn2c(SCc3ccccc3)nc3cccnc32)cc1 -11.4%, Cc1ccccc1Cn1c2ccccc2c2cnn(CC(=O)NCC(C)c3ccccc3)c(=O)c21 (stereo not drawn) -7.5%, CCc1ccccc1NC(=O)c1ccc2c(SCC(=O)O)c3c(nc2c1)CCC3 4.7%, Cc1c(C)n(Cc2ccccc2)c2ccc(C(=O)OCCN(C)C)cc12 -7.89%, Cc1cc(C(=O)NCc2cccc(Br)c2)c2c(C)nn(-c3ccccc3)c2n1 -2.07%, CC(=O)N1c2ccc(S(=O)(=O)NCC3CCC(C(=O)Nc4ccc(C)c(C)c4)CC3)cc2CC1C (stereo not drawn) 5.32%, Cc1ccc(NC(=O)c2ccc(CNS(=O)(=O)c3ccc4c(c3)C(C)(C)C(=O)N4C)cc2)cc1C -3.83%, O=C(CCn1ccc2cc(S(=O)(=O)N3CCCC3)ccc21)NCc1cccc(Cl)c1 -3.6%, Cc1cc(C)c2c(-n3cccc3)c(C(=O)NCc3cccc(F)c3)sc2n1 -26.4%, CCOc1ccc(NC(=O)c2nc3nc(C)cc(C(F)F)n3n2)cc1 -14.1%, CCc1nnc(SCc2ccc(OC)cc2)c2cc3sc(C)cc3n12 -6.21%, COc1cc(CCNC(=O)c2ccc3c(c2)c(C)c(C)n3Cc2cccc(C)c2)cc(OC)c1OC -7.08%, COc1ccc(OC)c(Nc2ncnc3c2nc2n3CCCC2)c1 -6.43%, COCCCn1c(=N)c(C(=O)NCc2cccnc2)cc2c(=O)n3cc(C)ccc3nc21 -3.99%, CC(=O)N(CC(O)CN(C(C)=O)c1c(I)c(C(=O)NCC(O)CO)c(I)c(C(=O)NCC(O)CO)c1I)c1c(I)c(C(=O)NCC(O)CO)c(I)c(C(=O)NCC(O)CO)c1I (stereo not drawn) -8%, CCOc1ccccc1CNCc1c(C(=O)O)n(Cc2ccc(F)cc2)c2cc(C)ccc12 -7.82%, CC(=O)c1ccc(N2CCN(C(=O)CCn3cnc4onc(-c5ccc(F)cc5)c4c3=O)CC2)cc1 -12.2%, CCOc1ccccc1NC(=O)Nc1cc2c(cc1N1CCCCC1)n(CC)c(=O)n2CC -12.8%, CCOC(=O)c1ccc(NC(=O)CSc2nccn2-c2cc(C)cc(C)c2)cc1 -16.1%, O=C1CC(c2ccc(F)cc2)c2c(c3ccccc3[nH]c2=O)O1 (stereo not drawn) -11.8%, Cc1cc(C)cc(NC(=O)CNS(=O)(=O)c2ccc3nc(C)sc3c2)c1 9.79%, CCn1cc(C(=O)NCCc2ccc(C)cc2)c(=O)c2cc(S(=O)(=O)N3CCc4ccccc4C3)ccc21 -16.3%, O=C(Nc1c(-c2ccccc2)nc2ccccn12)c1ccccc1F 1.99%, Cc1ccc(-c2noc(-c3cc(-c4ccc(F)cc4)n[nH]3)n2)cc1 -21.8%, Cc1ccc(NC(=O)CN2C(=O)c3ccccc3Sc3ccc(C(=O)N4CCOCC4)cc32)c(Cl)c1 3.18%, CCN(C(=O)C1CCCN(c2ncnc3c2nc2n3CCCCC2)C1)c1cccc(C)c1 (stereo not drawn) -12.5%, CCOc1ccc(OC(=O)c2c(-c3ccccc3Cl)noc2C)cc1 -6.64%, CN1C(=O)Cc2cc(S(=O)(=O)CCC(=O)Nc3ccc(OC(F)(F)F)cc3)ccc21 5.51%, CCc1cc2c(cc3c(=O)n(CC(=O)NCc4cc(Br)ccc4OC)ncn32)s1 -7.25%, CCN(CC)S(=O)(=O)c1ccc2oc(C(=O)Nc3cc(C)ccc3OC)c(C)c2c1 -4.01%, COC(=O)CNC(=O)N1CCN(S(=O)(=O)c2ccc3c(ccn3C)c2)CC1 -1.66%, CCOc1ccc(-c2nnc(SCC(=O)c3ccccc3)n2-c2ccccc2)cc1 -4.69%, Cn1cccc1-c1cc2n(n1)CCC(=O)N2CCCC(=O)NCc1ccc(F)cc1 -18.2%, COc1ccc(C(=O)Nc2ccc3oc(-c4ccc5ccccc5c4)nc3c2)cc1Br 1.64%, CCCCNC(=O)CN1C(=O)COc2ccc(S(=O)(=O)N3CCCCCC3)cc21 -12.7%
